Experimental data as given in US20050064485A1, “Multiplex binding and activity assays” (priority 2003, published 2005).

Tested on: anti-pSer133 antibody labeled with CS124-DTPA-Phe-NCS*Tb
Details: TR-RET

With “LRREILSRRP(pS)YRK-Fluorescein [SEQ ID NO:7]” the “binding affinity for Tb-chelate labeled anti-pSer133 antibody” value was “sub-nM”.
